Measurements from PMC4336329 (PLoS ONE, 2015).
The campaign covered roughly 310,000 compounds. About 2,200 (0.71%) showed an effect of 50% or more. The effect is printed as a negative number. This is one part of the list.

What follows are compounds tested against human ether-à-go-go-related gene (hERG) potassium channel (human, UniProt Q12809) (assay: primary screen, population patch clamp on CHO cells stably expressing hERG).
Chain of human ether-à-go-go-related gene (hERG) potassium channel (Q12809 whole entry, looked up): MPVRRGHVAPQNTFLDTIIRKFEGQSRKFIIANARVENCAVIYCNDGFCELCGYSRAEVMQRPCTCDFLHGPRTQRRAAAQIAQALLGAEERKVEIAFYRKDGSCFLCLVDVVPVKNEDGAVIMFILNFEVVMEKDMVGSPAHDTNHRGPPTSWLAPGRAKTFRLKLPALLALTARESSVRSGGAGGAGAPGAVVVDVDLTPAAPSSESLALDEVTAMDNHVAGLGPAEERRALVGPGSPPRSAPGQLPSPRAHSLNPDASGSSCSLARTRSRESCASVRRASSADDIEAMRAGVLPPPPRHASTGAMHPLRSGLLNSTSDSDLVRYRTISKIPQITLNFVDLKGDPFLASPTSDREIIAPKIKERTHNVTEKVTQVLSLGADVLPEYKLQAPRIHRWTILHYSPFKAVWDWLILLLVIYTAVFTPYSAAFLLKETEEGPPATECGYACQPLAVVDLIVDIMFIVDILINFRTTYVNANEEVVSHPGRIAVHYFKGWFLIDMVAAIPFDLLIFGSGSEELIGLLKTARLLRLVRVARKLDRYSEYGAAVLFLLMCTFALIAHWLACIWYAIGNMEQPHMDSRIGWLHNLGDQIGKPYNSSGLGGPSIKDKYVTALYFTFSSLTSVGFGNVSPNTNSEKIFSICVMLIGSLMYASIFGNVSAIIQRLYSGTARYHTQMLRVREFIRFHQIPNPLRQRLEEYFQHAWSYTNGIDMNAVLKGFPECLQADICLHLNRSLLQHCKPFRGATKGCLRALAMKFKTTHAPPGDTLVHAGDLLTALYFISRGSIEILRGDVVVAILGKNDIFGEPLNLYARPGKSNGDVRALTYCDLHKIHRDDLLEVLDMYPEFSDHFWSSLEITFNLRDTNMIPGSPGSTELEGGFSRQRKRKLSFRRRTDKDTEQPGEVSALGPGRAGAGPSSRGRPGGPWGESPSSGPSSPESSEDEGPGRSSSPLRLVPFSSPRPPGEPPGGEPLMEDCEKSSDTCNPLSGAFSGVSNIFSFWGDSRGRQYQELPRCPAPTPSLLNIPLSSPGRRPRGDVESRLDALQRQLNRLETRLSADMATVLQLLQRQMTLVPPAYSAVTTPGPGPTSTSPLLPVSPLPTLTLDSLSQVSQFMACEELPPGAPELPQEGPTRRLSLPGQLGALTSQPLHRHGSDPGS

Compared with `NC(=O)c1cnn(Cc2ccc(Cl)cc2)c1N`, `Cc1ccccc1NS(=O)(=O)c1ccc(C)c(C(N)=O)c1` is lower in “hERG current change (%, negative = inhibition) at 1uM” value: 10.6% for the first, 1.8% for the second.

Compared with `Cc1c(Cl)cccc1NC(=O)c1nc(C)n(-c2cc(OC(C)C)c(Cl)cc2Cl)n1`, `Cc1cc(C)nc(/N=C(\N)Nc2cc([N+](=O)[O-])ccc2C)n1` is lower in “hERG current change (%, negative = inhibition) at 1uM” value: 22.5% for the first, -20.1% for the second.

Compared with `COc1cccc(-c2csc(/C(C#N)=C/Nc3cc4oc5ccccc5c4cc3OC)n2)c1`, `COc1ccc(C)cc1Nc1n[n+](-c2ccccc2)c(-c2cc(OC)c(OC)cc2Br)s1.[Cl-]` is lower in “hERG current change (%, negative = inhibition) at 1uM” value: 5.17% for the first, -5.17% for the second.

First: Cc1ccc(-c2cc(C(=O)NC3CCCC3)no2)cc1
Second: COc1cc2[nH]c(=O)n(Cc3ccc(C(=O)NC4CCN(Cc5ccccc5)CC4)cc3)c(=O)c2cc1OC
The “hERG current change (%, negative = inhibition) at 1uM” value of the first is lower: 6.77% for the first, 9.93% for the second.

First: Fc1ccc(Oc2cnns2)cc1
Second: COc1ccc(C2SCC(=O)N2Cc2ccccc2)cc1 (centres unmarked)
The “hERG current change (%, negative = inhibition) at 1uM” value of the first is higher: 14.1% for the first, 6.14% for the second.

Going from `Cc1cccc2nc(Cn3c(=O)n(CCCC(=O)NCc4ccco4)c(=O)c4ccccc43)cc(=O)n12` to `CCn1c(=O)n(CC(=O)N(C)Cc2ccccc2)c(=O)c2ccccc21`, the “hERG current change (%, negative = inhibition) at 1uM” value falls from 9% to 4.71%.

First: Cc1ccccc1C(=O)Nc1nnc(S(=O)(=O)N(C)Cc2ccco2)s1
Second: COc1ccccc1C(=O)NCC(=O)N/N=C/c1cn[nH]c1-c1ccccc1
The “hERG current change (%, negative = inhibition) at 1uM” value of the first is higher: 17% for the first, -11% for the second.

Going from `CCCCc1ccc(Nc2ncnc3nc[nH]c23)cc1` to `CCCn1nc2cc(C(=O)NCc3ccc(OC(F)(F)F)cc3)ccc2c1OCC`, the “hERG current change (%, negative = inhibition) at 1uM” value rises from 3.46% to 15%.

First: O=C(O)C1CCCCC1C(=O)N1CCN(S(=O)(=O)c2ccc(F)cc2)CC1 (centres unmarked)
Second: O=C(CSC1=NS(=O)(=O)c2cc(Cl)ccc2N1)Nc1ccccc1F
The “hERG current change (%, negative = inhibition) at 1uM” value of the first is lower: 4.41% for the first, 5.13% for the second.

First: COc1ccc(/C=N/NC(=O)c2ccc(NC(=O)c3cccc([N+](=O)[O-])c3)cc2)c(OC)c1
Second: COc1ccc(CCNC(=O)CCc2nnc(Cc3ccc4c(c3)OCO4)o2)c(OC)c1
The “hERG current change (%, negative = inhibition) at 1uM” value of the first is lower: 8.33% for the first, 11.6% for the second.

Going from `COc1ccc(NC(=O)CSc2nncc(=O)n2N)cc1OC` to `CCOc1ccccc1CNC(=O)c1cc2oc3ccccc3c2n1C`, the “hERG current change (%, negative = inhibition) at 1uM” value falls from 13.8% to 9.01%.

For `Cl.Clc1cccc(-c2ccc(CNCc3ccccn3)o2)c1`, the “hERG current change (%, negative = inhibition) at 1uM” value was 6.57%.
